We go through 17 compounds from PubChem BioAssay (NCATS).

Assay [1] can be described thus: qHTS drug screen for cell cycle checkpoint inhibitors in PARPi-resistant BRCA-mutant ovarian cancer cell lines. (AID 1963452). Conditions: PEO1/OlaR viability, CellTiter-Glo luminescence, 96 h. Put shortly:
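PEO1, PEO4 and PEO1/OlaR ovarian cancer cells, 600 per well, exposed 96 h at 37C to a dilution series. Viability read by CellTiter-Glo luminescence, normalized to DMSO and empty wells; activity summarized as Z-AUC.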
For orientation: qHTS replaces the single test concentration by a dilution series.

The nature of assay [2]: qHTS for identification of novel therapeutic agents for treatment of microphthalmiaassociated transcription factor (MiT) renal cell carcinoma (RCC) (AID 1963991).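 On z-score: curves scaled with 100% = DMSO viability and 0% = empty wells.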 The following applies: CellTiter-Glo, 48 h; for z-score: stronger effect = lower value. The essentials: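 UOK109/UOK124/UOK145 (TFE3 fusions, three partners); 500 cells/well; MIPE v4.0, 1912 cpds, 11 conc.; 48 h, 37 C; CellTiter-Glo, 15 min RT; lum. Norm.: DMSO 100%, empty 0%.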

Setting [3] is: TFE3-RCC UOK109 viability, measured here: UOK109 Z-AUC.
Where [4] appears, read: TFE3-RCC viability, measured here: UOK124 Z-AUC.
The mark [5] stands for this setting: TFE3-RCC viability, measured here: UOK124 cell viability.
Where [6] appears, read: TFE3-RCC viability, measured here: UOK145 Z-AUC.
Where [7] appears, read: TFE3-RCC viability, measured here: UOK145 cell viability.
Where [8] appears, read: measured here: PEO1 parental viability.

By AC50 is commonly meant the concentration giving half of the maximal activity seen.

This is one part of the list. The main result of the screen is listed elsewhere. These columns were measured beside it and carry no call. For some of these results: Compounds called inactive in the main read-out are mostly missing here. Potencies come from curve fits of mixed quality, noted in brackets.
Tags describe the fitted curve by direction and shape.

Consider `OCCC#Cc1nc(-c2ccc(F)cc2)c(-c2ccncc2)n1CCCc1ccccc1`, for which the AC50 in assay [1] (measured here: PEO4 viability) was 27.5 µM [falling, single point]; in assay [2] (setting [5]), 20.9 µM [falling, partial curve]; in assay [2] (setting [7]) it was 37.2 µM [falling, single point]. Further, the z-score in assay [2] (setting [3]) is 0.225; in assay [2] (setting [4]), 2.18; in assay [2] (setting [6]), 0.477.
With `CN(C)CC(=O)N1CCC(c2ccc(NC(=O)c3ncc(C#N)[nH]3)c(C3=CCCCC3)c2)CC1`, the AC50 in assay [1] (setting [8]) is 19.5 µM [falling, single point]; in assay [2] (setting [5]), 23.5 µM [falling, single point]; in assay [2] (setting [7]), 33.2 µM [falling, single point]. In addition, the z-score was 0.735 in assay [2] (setting [3]), -2.74 in assay [2] (setting [4]) and 0.634 in assay [2] (setting [6]).
Regarding `CN(C)CCOc1cc(-c2cn[nH]c2)ccc1NC(=O)C1COc2ccccc2O1` (stereo not given), the AC50 is 2.19 µM [falling, partial curve, poor fit] in assay [1] (measured here: PEO4 viability); 18.7 µM [falling, partial curve] in assay [2] (setting [5]); 33.2 µM [falling, single point] in assay [2] (setting [7]). The z-score was found to be 0.61 in assay [2] (setting [3]), 0.0908 in assay [2] (setting [4]) and 0.824 in assay [2] (setting [6]).
For `Cc1cnc(-c2cnc(NCCNc3ccc(C#N)cn3)nc2-c2ccc(Cl)cc2Cl)[nH]1`, the AC50 was 13.8 µM [falling, partial curve, poor fit] in assay [1] (measured here: PEO4 viability); 20.9 µM [falling, single point] in assay [2] (setting [5]); 16.6 µM [falling, partial curve] in assay [2] (setting [7]). In addition, the z-score was -0.609 in assay [2] (setting [3]), -0.546 in assay [2] (setting [4]) and -0.284 in assay [2] (setting [6]).
`CN[C@@H](C)C(=O)N[C@H]1CCCC[C@H]2CC[C@@H](C(=O)N[C@@H](c3ccccc3)c3cn(CCCCc4ccc(CCCCn5cc([C@@H](NC(=O)[C@@H]6CC[C@@H]7CCCC[C@H](NC(=O)[C@H](C)NC)C(=O)N76)c6ccccc6)nn5)cc4)nn3)N2C1=O`: the AC50 is 17.4 µM [falling, partial curve] in assay [1] (measured here: PEO4 viability); 0.935 µM [falling, partial curve, poor fit] in assay [2] (setting [5]); 1.66 µM [falling, full curve] in assay [2] (setting [7]). Besides, the z-score in assay [2] (setting [3]) is -0.668; in assay [2] (setting [4]), -0.994; in assay [2] (setting [6]), 0.152.
For `CCc1cncnc1N1CCN(Cc2nc3ccc(C(F)(F)F)cc3[nH]2)CC1`, the AC50 in assay [1] (setting [8]) was 15.5 µM [falling, partial curve]; in assay [2] (setting [5]) it was 23.5 µM [falling, partial curve]; in assay [2] (setting [7]), 14.8 µM [falling, partial curve, poor fit]. For the same compound, the z-score in assay [2] (setting [3]) is 0.326; in assay [2] (setting [4]), 0.0658; in assay [2] (setting [6]), 0.281.
On to `CCN(CC)CCCCNc1ncc2c(n1)N(C)C(=O)N(c1c(Cl)c(OC)cc(OC)c1Cl)C2`, for which the AC50 was 24.5 µM [falling, single point] in assay [1] (measured here: PEO4 viability); 16.6 µM [falling, partial curve] in assay [2] (setting [5]); 11.8 µM [falling, partial curve] in assay [2] (setting [7]). Also, the z-score in assay [2] (setting [3]) was 0.767; in assay [2] (setting [4]), -1.13; in assay [2] (setting [6]), -0.0724.
In the case of `O=C(NCc1ccncc1)C12C[C@H]3C[C@@H](C1)CC(c1ccc(Cl)cc1)(C3)C2`, the AC50 in assay [1] (measured here: PEO4 viability) was 17.4 µM [falling, single point]; in assay [2] (setting [5]), 16.6 µM [falling, partial curve]; in assay [2] (setting [7]) it was 33.2 µM [falling, single point]. The figures for the z-score in assay [2] (setting [3]), in assay [2] (setting [4]) and in assay [2] (setting [6]) were -0.011, -2.57 and 0.614, respectively.
On to `OC1CCC(Nc2ncc3nc(Nc4c(F)cc(F)cc4F)n([C@@H]4CCOC4)c3n2)CC1` (stereo not given in full), for which the AC50 was 19.5 µM [falling, partial curve, poor fit] in assay [1] (measured here: PEO4 viability); 10.5 µM [falling, partial curve, poor fit] in assay [2] (setting [5]); 33.2 µM [falling, single point] in assay [2] (setting [7]). In addition, the z-score was 0.208 in assay [2] (setting [3]), -0.159 in assay [2] (setting [4]) and 0.533 in assay [2] (setting [6]).
With `S=C(NCc1ccc2c(c1)OCO2)N1CCN(c2ncnc3c2oc2ccccc23)CC1`, the AC50 in assay [1] (setting [8]) was 0.549 µM [falling, full curve]; in assay [2] (setting [5]), 2.7 µM [falling, full curve]; in assay [2] (setting [7]) it was 42.9 µM [falling, partial curve, poor fit]. Moreover, the z-score was -0.407 in assay [2] (setting [3]), 0.17 in assay [2] (setting [4]) and 0.0638 in assay [2] (setting [6]).
As to `CCCCCNC(=O)N1CCC(CN(Cc2ccc(Cl)cc2)Cc2ccc([N+](=O)[O-])s2)C1` (stereo not given), the AC50 was 0.0436 µM [rising, full curve, poor fit] in assay [1] (setting [8]); 23.5 µM [falling, partial curve] in assay [2] (setting [5]); 20.9 µM [falling, single point] in assay [2] (setting [7]). Besides, the z-score in assay [2] (setting [3]) is -0.0613; in assay [2] (setting [4]), 0.354; in assay [2] (setting [6]) it was 0.142.
As for `Cc1ccn(-c2ccc(-c3ncco3)cc2)c(=O)c1-c1ccc2nc(N)ncc2c1`, the AC50 in assay [1] (setting [8]) was 24.5 µM [falling, single point]; in assay [2] (setting [5]), 13.2 µM [falling, partial curve, poor fit]; in assay [2] (setting [7]), 13.2 µM [falling, partial curve]. Further, the z-score in assay [2] (setting [3]) was -0.55; in assay [2] (setting [4]) it was -0.939; in assay [2] (setting [6]) it was 0.471.
Turning to `CC(C)c1cnn2c(NCc3ccccc3)cc(NCCCCCCN)nc12`, the AC50 was 24.5 µM [falling, single point] in assay [1] (measured here: PEO4 viability); 26.4 µM [falling, single point] in assay [2] (setting [5]); 13.2 µM [falling, partial curve] in assay [2] (setting [7]). Moreover, the z-score was -0.532 in assay [2] (setting [3]), 0.167 in assay [2] (setting [4]) and 0.454 in assay [2] (setting [6]).
As to `Nc1ccc(C(=O)Nc2cccc(-c3nc(N4CCOCC4)c4oc5ncccc5c4n3)c2)cn1`, the AC50 in assay [1] (setting [8]) was 2.19 µM [falling, partial curve]; in assay [2] (setting [5]), 2.64 µM [falling, full curve]; in assay [2] (setting [7]), 1.87 µM [falling, full curve]. The z-score in assay [2] (setting [3]) is -0.544; in assay [2] (setting [4]), -0.542; in assay [2] (setting [6]), -1.23.
As for `Cc1c(C)n(Cc2ccc(-c3ccccc3C(=O)O)cc2)c2ccc(C(=O)N[C@@H](C)c3ccc([N+](=O)[O-])cc3)cc12`, the AC50 in assay [1] (measured here: PEO4 viability) is 27.5 µM [falling, partial curve, poor fit]; in assay [2] (setting [7]) it was 2.64 µM [falling, partial curve, poor fit]. The z-score in assay [2] (setting [3]) was -1.43; in assay [2] (setting [4]), 0.566; in assay [2] (setting [6]) it was -0.185.
As to `COC(=O)N1CCN(Cc2cccc(NC(=O)Nc3ccc(C)nc3)c2F)CC1`, the AC50 is 21.9 µM [falling, partial curve, poor fit] in assay [1] (setting [8]) and 10.5 µM [falling, partial curve, poor fit] in assay [2] (setting [5]). Besides, the z-score in assay [2] (setting [3]) turned out to be 1.09; in assay [2] (setting [4]), 1.82; in assay [2] (setting [6]) it was 0.15.
Regarding `O=C(O)c1c(Cl)c(Cl)c(Cl)c(Cl)c1-c1c2cc(I)c(=O)c(I)c-2oc2c(I)c(O)c(I)cc12`, the AC50 in assay [1] (measured here: PEO4 viability) is 8.71 µM [falling, partial curve]; in assay [2] (setting [5]) it was 6.62 µM [falling, full curve]; in assay [2] (setting [7]), 13.2 µM [falling, partial curve]. Also, the z-score in assay [2] (setting [3]) is -2.55; in assay [2] (setting [4]), -0.0359; in assay [2] (setting [6]), 0.699.
